# Values of other authors, collected in paper PMC11006913.
# Some of the results follow.
# Target: PITX2 R108H (Homo sapiens) (UniProt Q99697)
# Conditions: PBM; conditions not shown; double strand, one strand shown; scale: upbm affinity estimate (log intensity, higher = more binding, comparable within an allelic series)
row,Sequence,binding signal
1,CGGTTTAG [8-mer CGGTTTAG],8.57
2,CCGTCGCG [8-mer CCGTCGCG],8.21
3,GAACTGGC [8-mer GAACTGGC],8.07
4,CGGGACCA [8-mer CGGGACCA],8.08
5,AGATTCAT [8-mer AGATTCAT],8.64
6,GCGCAGAC [8-mer GCGCAGAC],8.21
7,TGGCTTAA [8-mer TGGCTTAA],9.09
8,CTAAGCCA [8-mer CTAAGCCA],8.59
9,ATAATCCG [8-mer ATAATCCG],9.67
10,GAGATTAA [8-mer GAGATTAA],9.58
11,CCCGTGTC [8-mer CCCGTGTC],8.1
12,GAGAGCCC [8-mer GAGAGCCC],7.94
13,GGATTACC [8-mer GGATTACC],9.3
14,CTATAATC [8-mer CTATAATC],9.3
15,ACCGGGGC [8-mer ACCGGGGC],7.87
16,CCCTAGGG [8-mer CCCTAGGG],8.04
17,CGTTAATC [8-mer CGTTAATC],9.39
18,CCGGTTGC [8-mer CCGGTTGC],8.12
19,AGTAATCC [8-mer AGTAATCC],9.33
20,GGCTTAAC [8-mer GGCTTAAC],9.09

row,Sequence,binding signal
1,ATAAATCC [8-mer ATAAATCC],9.08
2,ATTAAGCC [8-mer ATTAAGCC],9.22
3,ATTTAATC [8-mer ATTTAATC],9.39
4,CTGGATTA [8-mer CTGGATTA],9.39
5,CGGGGTCC [8-mer CGGGGTCC],8.09
6,CCCAGGCC [8-mer CCCAGGCC],7.91
7,GCCCTCAC [8-mer GCCCTCAC],8.17
8,AGATTAAC [8-mer AGATTAAC],9.36
9,ACTTAGGC [8-mer ACTTAGGC],8.49
10,CGGCCCCC [8-mer CGGCCCCC],8.07
11,TAGATTAA [8-mer TAGATTAA],9.33
12,CGTGGCAC [8-mer CGTGGCAC],8.3
13,AAGCTATA [8-mer AAGCTATA],8.79
14,CGGCTTAA [8-mer CGGCTTAA],8.93
15,GGCCGGAC [8-mer GGCCGGAC],7.99
16,CCGCGCCG [8-mer CCGCGCCG],7.98
17,CCGGCCAA [8-mer CCGGCCAA],8.11
18,AGGATTAG [8-mer AGGATTAG],9.65
19,GATTAATC [8-mer GATTAATC],9.8

# Target: PITX2 R130W (Homo sapiens) (UniProt Q99697)
# Conditions: PBM; conditions not shown; double strand, one strand shown; scale: upbm affinity estimate (log intensity, higher = more binding, comparable within an allelic series)
row,Sequence,binding signal
1,CGGTTTAG [8-mer CGGTTTAG],8.39
2,CCGTCGCG [8-mer CCGTCGCG],8.03
3,GAACTGGC [8-mer GAACTGGC],8.05
4,CGGGACCA [8-mer CGGGACCA],8.01
5,AGATTCAT [8-mer AGATTCAT],8.61
6,GCGCAGAC [8-mer GCGCAGAC],8.18
7,TGGCTTAA [8-mer TGGCTTAA],8.63
8,CTAAGCCA [8-mer CTAAGCCA],8.35
9,ATAATCCG [8-mer ATAATCCG],8.59
10,GAGATTAA [8-mer GAGATTAA],8.74
11,CCCGTGTC [8-mer CCCGTGTC],7.94
12,GAGAGCCC [8-mer GAGAGCCC],7.92
13,GGATTACC [8-mer GGATTACC],8.46
14,CTATAATC [8-mer CTATAATC],8.78
15,ACCGGGGC [8-mer ACCGGGGC],7.71
16,CCCTAGGG [8-mer CCCTAGGG],8.07
17,CGTTAATC [8-mer CGTTAATC],8.63
18,CCGGTTGC [8-mer CCGGTTGC],8.06
19,AGTAATCC [8-mer AGTAATCC],8.61
20,GGCTTAAC [8-mer GGCTTAAC],8.52

row,Sequence,binding signal
1,ATAAATCC [8-mer ATAAATCC],8.61
2,ATTAAGCC [8-mer ATTAAGCC],8.52
3,ATTTAATC [8-mer ATTTAATC],8.76
4,CTGGATTA [8-mer CTGGATTA],8.69
5,CGGGGTCC [8-mer CGGGGTCC],7.97
6,CCCAGGCC [8-mer CCCAGGCC],7.74
7,GCCCTCAC [8-mer GCCCTCAC],8.1
8,AGATTAAC [8-mer AGATTAAC],8.53
9,ACTTAGGC [8-mer ACTTAGGC],8.37
10,CGGCCCCC [8-mer CGGCCCCC],7.73
11,TAGATTAA [8-mer TAGATTAA],8.71
12,CGTGGCAC [8-mer CGTGGCAC],8.18
13,AAGCTATA [8-mer AAGCTATA],8.6
14,CGGCTTAA [8-mer CGGCTTAA],8.38
15,GGCCGGAC [8-mer GGCCGGAC],7.9
16,CCGCGCCG [8-mer CCGCGCCG],7.85
17,CCGGCCAA [8-mer CCGGCCAA],8.06
18,AGGATTAG [8-mer AGGATTAG],8.54
19,GATTAATC [8-mer GATTAATC],8.75

# Target: PITX2 T114P (Homo sapiens) (UniProt Q99697)
# Conditions: PBM; conditions not shown; double strand, one strand shown; scale: upbm affinity estimate (log intensity, higher = more binding, comparable within an allelic series)
row,Sequence,binding signal
1,CGGTTTAG [8-mer CGGTTTAG],8.56
2,CCGTCGCG [8-mer CCGTCGCG],8.22
3,GAACTGGC [8-mer GAACTGGC],8.1
4,CGGGACCA [8-mer CGGGACCA],8.1
5,AGATTCAT [8-mer AGATTCAT],8.63
6,GCGCAGAC [8-mer GCGCAGAC],8.15
7,TGGCTTAA [8-mer TGGCTTAA],9.29
8,CTAAGCCA [8-mer CTAAGCCA],8.76
9,ATAATCCG [8-mer ATAATCCG],9.97
10,GAGATTAA [8-mer GAGATTAA],10
11,CCCGTGTC [8-mer CCCGTGTC],8.07
12,GAGAGCCC [8-mer GAGAGCCC],8.03
13,GGATTACC [8-mer GGATTACC],9.7
14,CTATAATC [8-mer CTATAATC],9.45
15,ACCGGGGC [8-mer ACCGGGGC],7.9
16,CCCTAGGG [8-mer CCCTAGGG],8.14
17,CGTTAATC [8-mer CGTTAATC],9.54
18,CCGGTTGC [8-mer CCGGTTGC],8.26
19,AGTAATCC [8-mer AGTAATCC],9.8
20,GGCTTAAC [8-mer GGCTTAAC],9.41

row,Sequence,binding signal
1,ATAAATCC [8-mer ATAAATCC],9.41
2,ATTAAGCC [8-mer ATTAAGCC],9.6
3,ATTTAATC [8-mer ATTTAATC],9.57
4,CTGGATTA [8-mer CTGGATTA],9.85
5,CGGGGTCC [8-mer CGGGGTCC],8.1
6,CCCAGGCC [8-mer CCCAGGCC],7.93
7,GCCCTCAC [8-mer GCCCTCAC],8.13
8,AGATTAAC [8-mer AGATTAAC],9.56
9,ACTTAGGC [8-mer ACTTAGGC],8.51
10,CGGCCCCC [8-mer CGGCCCCC],8.02
11,TAGATTAA [8-mer TAGATTAA],9.46
12,CGTGGCAC [8-mer CGTGGCAC],8.3
13,AAGCTATA [8-mer AAGCTATA],8.75
14,CGGCTTAA [8-mer CGGCTTAA],9.21
15,GGCCGGAC [8-mer GGCCGGAC],8.1
16,CCGCGCCG [8-mer CCGCGCCG],7.94
17,CCGGCCAA [8-mer CCGGCCAA],8.12
18,AGGATTAG [8-mer AGGATTAG],10.2
19,GATTAATC [8-mer GATTAATC],9.96
